In all, about 33,000 sequences were measured (“E-score (-0.5 to 0.5)”: median about -0.011, highest 2% from about 0.28 on). Some of the results follow.
These sequences were tested against T1, Gcr1 (UniProt P07261) (assay: PBM E-score (8-mer binding enrichment) (E-score (-0.5 to 0.5)); higher = stronger / more preferred TF binding; most listed sequences are background and not binding sites). Conditions: protein concentration: 100 nM; construct: GST-full length.
T1 sequence: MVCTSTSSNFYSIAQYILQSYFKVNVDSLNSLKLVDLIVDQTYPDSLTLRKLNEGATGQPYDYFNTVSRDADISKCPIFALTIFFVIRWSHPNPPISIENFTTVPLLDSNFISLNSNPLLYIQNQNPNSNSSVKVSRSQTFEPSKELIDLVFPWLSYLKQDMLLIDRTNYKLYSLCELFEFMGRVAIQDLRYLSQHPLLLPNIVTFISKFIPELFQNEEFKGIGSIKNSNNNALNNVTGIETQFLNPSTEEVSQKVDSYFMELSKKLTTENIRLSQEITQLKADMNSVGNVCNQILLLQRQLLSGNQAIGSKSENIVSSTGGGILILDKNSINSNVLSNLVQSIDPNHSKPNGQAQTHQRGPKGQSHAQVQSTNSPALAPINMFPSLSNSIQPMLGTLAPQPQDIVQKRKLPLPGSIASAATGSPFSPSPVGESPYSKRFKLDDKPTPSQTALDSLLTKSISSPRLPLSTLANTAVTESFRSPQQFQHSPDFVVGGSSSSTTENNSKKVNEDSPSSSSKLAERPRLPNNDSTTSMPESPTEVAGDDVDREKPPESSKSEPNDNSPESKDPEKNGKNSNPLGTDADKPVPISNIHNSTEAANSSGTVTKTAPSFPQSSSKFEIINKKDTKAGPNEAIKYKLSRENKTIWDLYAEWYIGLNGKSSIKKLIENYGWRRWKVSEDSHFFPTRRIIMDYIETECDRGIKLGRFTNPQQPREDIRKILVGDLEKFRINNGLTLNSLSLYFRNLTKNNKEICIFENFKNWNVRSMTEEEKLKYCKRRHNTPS
Summary of the method: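 Yeast transcription factors carrying a GST tag, as full-length proteins or DNA-binding domains, were produced by PURExpress in vitro transcription/translation. About 100-200 nM protein was applied to universal all-10-mer Agilent arrays, double-stranded by primer extension on fresh or once-stripped slides. Bound protein was detected with fluorescent anti-GST, and scans were normalised with masliner. The Universal PBM Analysis Suite gave each ungapped eight-base word, pooled with its reverse complement, an E-score, a modified Wilcoxon-Mann-Whitney statistic.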

| Sequence | PBM E-score |
| --- | --- |
| AGGGGTTA | -0.0231 |
| CATCTAAG | -0.126 |
| AGACCTAC | -0.175 |
| TCGATAAA | 0.226 |
| CACTTTGG | -0.0459 |
| AGACGGCC | -0.104 |
| GCGAAAAA | 0.105 |
| AAATGGGA | 0.194 |
| CAAATTGG | 0.213 |
| CGTGGATC | 0.00349 |
| GATGGCGC | 0.0734 |
| ACTACTAT | 0.218 |
| GTCACACA | -0.118 |
| CTGTCAAA | -0.132 |
| ATAGGCAT | 0.157 |
| AATCAACA | 0.0866 |
| CTTGAGCC | -0.0761 |
| GAGCTCTA | -0.172 |
| CGCCTGGA | 0.141 |
| CTGTCGCC | -0.127 |
| GCGAGTCC | -0.0562 |
| ATCGGGCC | -0.0384 |
| GACTCGAA | 0.081 |
| TAATTCAA | 0.015 |
| ACGTAAGA | -0.11 |

| Sequence | PBM E-score |
| --- | --- |
| AAGCAGAC | 0.134 |
| AGTGGAAA | 0.0918 |
| CCGTGCGA | -0.00782 |
| CTGAAAGA | -0.0374 |
| TCTAGACA | -0.0816 |
| ACATCTAG | 0.0353 |
| CTTCATAC | 0.0389 |
| ATCAACAC | 0.0425 |
| GATTTGCA | 0.0462 |
| AACTCCTG | -0.165 |
| AACCGATA | -0.116 |
| TATCTCAA | 0.136 |
| CCATCCCG | -0.248 |
| AAAAGATA | 0.0439 |
| CTTATCCA | 0.0373 |
| ACCATGGC | -0.045 |
| GCCTTCGA | -0.126 |
| GGCAATAC | -0.0435 |
| CGAGACCG | -0.0969 |
| ACGGCTCA | -0.123 |
| ATACTAAC | -0.0352 |
| CAGAAGCA | 0.0126 |
| ACGTGCTC | 8e-05 |
| TCAACAGA | 0.155 |
| CGCAGTGC | -0.211 |

| Sequence | PBM E-score |
| --- | --- |
| ACGTATCG | -0.0854 |
| AGCGAGAA | -0.0984 |
| CTTATTAC | 0.0948 |
| ACCGTGCC | -0.175 |
| CGGAATTC | 0.242 |
| CACGTAGG | -0.0372 |
| ACGTACTG | -0.192 |
| CCCGGGCG | 0.209 |
| ATGTATTC | 0.0999 |
| ACACCTGC | -0.178 |
| TCCTGTAA | 0.354 |
| ACAATTCA | -0.115 |
| GATCACCC | -0.0494 |
| ACTGCTGG | -0.134 |
| CGTGCACC | -0.103 |
| ACCTACTG | 0.00657 |
| CTGCGAGA | -0.0273 |
| CTACCCAC | -0.123 |
| AAAGTTTG | 0.139 |
| GCTCAGTA | 0.14 |
| ACGAGTAA | -0.0078 |
| ATACAGCG | -0.0978 |
| CTTATAAC | -0.0336 |
| CTCGGCCA | -0.271 |
| GCCTTCCA | 0.184 |

| Sequence | PBM E-score |
| --- | --- |
| AATTGGCC | -0.0021 |
| ATTTATAC | 0.124 |
| ACCTAGAA | 0.0544 |
| ACCTTATA | -0.00363 |
| CCAAACGG | -0.00574 |
| GACCCGAC | -0.241 |
| TATCATGA | -0.0571 |
| CCGGTTAA | 0.141 |
| CGTTACTC | -0.326 |
| GGGGAGAA | -0.0346 |
| CGCCCCCC | -0.0501 |
| AGCCGGAC | -0.0174 |
| CGCAGGTA | -0.0399 |
| CCTTAAGA | -0.0562 |
| GAACAGAA | -0.0321 |
| AAGCGGGT | 0.0929 |
| ATTCCCTC | -0.1 |
| CCAATGTA | 0.0497 |
| GCACGACC | -0.21 |
| CAAGTGTC | -0.129 |
| AACCAGAG | 0.0777 |
| GTAAAGTA | -0.0139 |
| GACGGCAC | -0.0223 |
| GCAGGATA | -0.0223 |
| AGTTACAC | 0.0961 |

| Sequence | PBM E-score |
| --- | --- |
| AGTTGGAT | 0.039 |
| CGACATAC | -0.0999 |
| ACCTCCTA | -0.111 |
| CAGAATCG | 0.0789 |
| ATATAGAG | 0.133 |
| GATACGGC | 0.074 |
| TAATCTAA | -0.115 |
| CCAGAAGC | 0.357 |
| AAATAACA | 0.0955 |
| GCACACGC | -0.0904 |
| CTAATACA | 0.0485 |
| AAGACCCA | -0.0116 |
| CCTTCCCA | 0.122 |
| AGTGGGAT | 0.25 |
| AAGCCTTC | -0.191 |
| CTGGACTC | 0.141 |
| ACGTCAGA | -0.0561 |
| CGGTGAAG | -0.0956 |
| GTATCATA | -0.061 |
| CAGATCAA | -0.068 |
| CCATCAAA | 0.00625 |
| ATAGCCCC | -0.147 |
| GCCAAGCA | -0.044 |
| ATACGCTC | -0.104 |
| AGTGCGGC | -0.0999 |

| Sequence | PBM E-score |
| --- | --- |
| AATTTTAG | 0.0728 |
| CCATCGCA | -0.0461 |
| GGCCTATA | 0.0391 |
| CTACTCTC | -0.193 |
| AGAAATTG | 0.151 |
| CCATCTCA | 0.00204 |
| CAAGTCGC | -0.0911 |
| ACGAGCAC | -0.0665 |
| ACCTTCAA | -0.202 |
| CGCCCGCG | 0.0931 |
| CGGGTACA | 0.0952 |
| ACTCCTAT | 0.115 |
| CACCGTAG | -0.0833 |
| CCTTTCGC | -0.0605 |
| CGTTGGTC | -0.0759 |
| GTTACCGA | -0.0728 |
| CTCTATGC | -0.0122 |
| CACGACTA | -0.203 |
| GCTAGCCA | -0.232 |
| TAGAACAA | -0.113 |
| CACGGGCC | -0.103 |
| CGAGGAGC | -0.148 |
| GCAACTAC | 0.178 |
| TCCAGCGA | 0.0412 |
| AACAACTA | 0.0332 |

| Sequence | PBM E-score |
| --- | --- |
| ATCTAGCG | -0.00302 |
| CCTTTGGC | -0.087 |
| CGAATTTC | 0.0814 |
| CACTAGAA | 0.0986 |
| CACCTCCG | -0.0483 |
| CGGGATAA | 0.0532 |
| AGTTCAGG | 0.0561 |
| AGTGGACA | -0.0203 |
| CACAAACG | 0.0553 |
| CCGTGGAC | -0.0384 |
| CGCGTATA | 0.256 |
| CGGATTAA | -0.0875 |
| AGGGGCAC | 0.0184 |
| GTCCGAAC | 0.0651 |
| AGGTGCGC | -0.0333 |
| CGAACCCC | 0.0243 |
| ATGTTGTC | -0.117 |
| GGATAAAA | 0.255 |
| ATAGCATG | -0.0869 |
| AGACACAC | -0.11 |
| CCGGCGGC | 0.214 |
| CACGACAC | -0.185 |
